# Laboratory results taken from the supplement of paper PMC3334620.
# The full ranking holds about 33,000 sequences; the median of “E-score (-0.5 to 0.5)” is about -0.016, and the highest 2% start at about 0.32. The list shows a part of the results.
# Molecular target: T1, Stp1 (UniProt B3LFK1)
# T1 sequence: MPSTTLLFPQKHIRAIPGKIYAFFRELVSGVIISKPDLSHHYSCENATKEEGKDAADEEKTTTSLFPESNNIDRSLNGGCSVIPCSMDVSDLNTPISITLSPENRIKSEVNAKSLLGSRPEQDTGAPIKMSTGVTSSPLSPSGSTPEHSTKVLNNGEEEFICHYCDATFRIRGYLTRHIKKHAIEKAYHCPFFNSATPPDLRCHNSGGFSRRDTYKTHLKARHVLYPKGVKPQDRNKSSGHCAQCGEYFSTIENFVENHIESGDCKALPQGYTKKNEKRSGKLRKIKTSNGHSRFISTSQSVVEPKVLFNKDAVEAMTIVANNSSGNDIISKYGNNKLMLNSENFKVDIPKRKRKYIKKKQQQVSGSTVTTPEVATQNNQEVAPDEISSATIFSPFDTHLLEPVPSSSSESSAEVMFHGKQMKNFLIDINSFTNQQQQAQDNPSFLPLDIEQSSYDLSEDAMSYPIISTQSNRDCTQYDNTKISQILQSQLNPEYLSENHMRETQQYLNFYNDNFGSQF
# Assay: PBM E-score (8-mer binding enrichment) (E-score (-0.5 to 0.5)); higher = stronger / more preferred TF binding; most listed sequences are background and not binding sites
# Details: protein concentration: 200 nM; construct: GST-full length
# Method: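 Universal 'all 10-mer' protein binding microarrays (Agilent AMADID 015681) probed with GST-tagged S. cerevisiae TFs (full-length or DBD) made by in vitro transcription/translation (PURExpress), about 100-200 nM. Bound TF was detected with fluorescent anti-GST. Each ungapped 8-mer (which stands for itself and its reverse complement) is scored by the PBM enrichment score (E-score), a modified Wilcoxon-Mann-Whitney statistic from -0.5 to +0.5, computed with the Universal PBM Analysis Suite. Scale: above 0.35 generally sequence-specific binding.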
row,Sequence,PBM E-score
1,AGAGATTG,0.0857
2,ATGCTTAG,0.064
3,AAGAAGCT,-0.0628
4,TACACAGA,-0.0248
5,CCTTACAC,0.00933
6,TACCGAAA,-0.0624
7,AACAAGCG,0.0955
8,AATGAGTC,-0.0951
9,CAATGTCG,0.012
10,ACTTACAC,0.0886
11,GACCATTA,0.054
12,AGCGCCTG,-0.0292
13,CTTAGCGA,-0.0978
14,GCGTTGCC,0.14
15,AGGTAAGG,-0.106
16,CGAGCCGC,0.385
17,ATCCTAAC,0.0728
18,ACAAATGA,0.0786
19,AGACTACT,-0.0654
20,GCCGACCA,-0.0352
21,CATAGGGG,-0.293
22,GGACGCCA,-0.102
23,AGGATTAA,0.0704
24,CGCGTGAA,0.206
25,GAACTGGA,0.122

row,Sequence,PBM E-score
1,TATGAAAA,0.202
2,ATGGTCAG,-0.0872
3,AACATGGT,-0.108
4,GGAGCTAA,-0.134
5,CAAACTCC,0.0727
6,GATAGGCA,0.194
7,AGAGACAA,-0.0906
8,TGAGCTAA,-0.0596
9,CCCCCAGG,-0.462
10,GTGAAACA,0.177
11,ATGATTTC,0.189
12,ATCCTGGA,-0.107
13,GGTCCATA,-0.16
14,ACTCTGAC,-0.168
15,AGCCAGAC,0.0482
16,AGGTAGTC,-0.173
17,GGCCTAGA,-0.317
18,GTAGCGAC,-0.246
19,GCATTGAA,0.105
20,CGACATTA,0.11
21,GTAGCCTA,-0.217
22,CGTAAAAC,0.109
23,ACACCCAT,-0.088
24,CATCTTTC,-0.0695
25,AACTTACA,0.0946

row,Sequence,PBM E-score
1,CATAAATG,-0.0701
2,GCTAACGA,0.0327
3,CGTGTCCC,0.0668
4,GGCCAGGA,-0.252
5,ACTCATCG,0.012
6,GACAGGAC,-0.13
7,AAGTAAGA,0.0481
8,AAGGCACG,0.397
9,GGGGGATA,-0.387
10,AAATGTCC,-0.229
11,AAATTCCC,-0.125
12,AATGGCGT,0.161
13,GCGCTACA,0.211
14,AACCCACG,-0.09
15,GTCGTGTA,-0.0401
16,ATATAGAT,0.173
17,AAAATGTG,0.133
18,CCGTGATA,0.139
19,GCGATGAC,0.00143
20,GAGTGGAC,-0.167
21,AATATCCA,0.111
22,AGTATGAC,0.1
23,TCACCCCA,0.0126
24,AGGTTGGG,-0.125
25,AATCCACA,-0.0508

row,Sequence,PBM E-score
1,CCGTCAAC,-0.0749
2,CACCCCAG,-0.151
3,GTAGCAAA,0.0195
4,CATGTTAC,0.0487
5,CAGTTGCA,0.0669
6,GGAAGATA,-0.0545
7,CGCACCTC,-0.0966
8,AAGCTAGA,-0.119
9,ATAGCTGA,-0.155
10,GATTTCCA,-0.0499
11,AAACCAGG,-0.0379
12,ACCCTCAC,-0.307
13,CGACAGCC,-0.0511
14,AAGACATC,-0.229
15,CACGCAGG,0.0824
16,GTTAATGA,-0.114
17,CACTCTTC,-0.0549
18,ATCGGCAT,0.238
19,TAGCGTCA,-0.0187
20,CCGGCCGA,0.12
21,CAGCCCCG,-0.208
22,CCATAGCC,-0.0867
23,AACCGCCA,-0.153
24,CTGCGGCA,0.422
25,CGTTACCC,-0.121

row,Sequence,PBM E-score
1,CCAGTCAC,-0.225
2,GAAATAGC,0.0194
3,CAACCCGG,-0.0873
4,ATAGTAAA,0.143
5,TGATCAAA,-0.0142
6,CCGTCGGC,0.152
7,ACCCAAGA,-0.144
8,AGAGAGTC,-0.173
9,AGCGAGCC,-0.00125
10,GTTTCAGA,0.13
11,GACGTACA,-0.0246
12,AGCTCTGG,-0.2
13,CGCGCACA,0.211
14,AAAATGTC,0.0611
15,CATCGAGA,-0.0794
16,GTGGGAGA,-0.222
17,CGACCGAG,-0.106
18,CAACTTGC,-0.104
19,CAATGGTG,-0.307
20,ATGGTTCC,0.0442
21,AAAATTGC,0.101
22,ACGGGTGG,-0.109
23,CATAACAA,0.235
24,CTCAGAAG,-0.0989
25,CCACCTAA,0.0326

row,Sequence,PBM E-score
1,AGACCGCT,-0.168
2,ATGCTAAC,0.0588
3,ACTCCGAC,-0.111
4,GCGCTAAC,0.173
5,ATCGGAAC,-0.0593
6,ACCCCACG,-0.185
7,CCTGGACC,-0.218
8,CAGGCAAA,0.0968
9,AAGTCGCC,0.0565
10,GTGGGCAA,-0.0572
11,AACTTGGC,-0.0907
12,CTAACTAA,0.00236
13,ATGCTCGC,0.0666
14,AGCCTGAA,-0.00656
15,AAATCCCC,-0.262
16,ACGTCTAC,-0.193
17,CCAGAGCG,-0.216
18,GACGCATA,0.185
19,ACTGACGG,-0.112
20,ACTCCCTC,-0.338
21,ACCATTGG,-0.112
22,GGAGCGGA,-0.124
23,AGGCCTGC,-0.11
24,AGTCCTCG,-0.259
25,CGGGAACG,-0.0785

row,Sequence,PBM E-score
1,ACCCCGAG,-0.0993
2,CATCGACA,-0.237
3,ATCACACA,0.131
4,AAGTGTGG,-0.043
5,CATGAATA,0.0264
6,AACGCCTA,0.0856
7,ACACACTC,0.00411
8,AGACCCAA,-0.151
9,CGCGCCAC,0.286
10,CACTCATC,0.0126
11,CCAGCGTC,-0.273
12,AGTAGCAA,0.0932
13,CAAAACCC,-0.0331
14,AGCAGCGC,0.0916
15,GGTGAGTA,0.00682
16,AGGACTTC,-0.187
17,AAACAAGA,0.043
18,AGACCACG,-0.3
19,GTGCGAAA,-0.00623
20,GTGGAAAA,0.0321
21,CTTACAAA,0.0851
22,ACCGCCGA,0.0744
